Measurements: the supplement of paper PMC11417369
± gives the standard deviation of the averaged measurements. This is one part of the list.

Test system: PfAP2-LT AP2 domain (GST-tagged)
Experiment: gcPBM binding intensity (ln(normalized median fluorescence intensity)); higher = stronger DNA binding
How it was run: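 Using an Agilent 4 × 180k array, primer-extended double-stranded 36-bp intergenic genomic probes and negative controls were exposed for 1 h to GST-fused P. falciparum DNA-binding domains expressed in E. coli. Binding was carried out in 1× PBS with 1% milk, 0.2 mg/ml BSA, 0.5% salmon testes DNA and 0.03% Triton X-100, and protein was detected with Alexa488 anti-GST antibody and a 488 nm scan. Binding intensity is the highest Masliner-normalised natural-log median intensity across replicate spots of either probe orientation.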

Sequence | gcPBM binding intensity (ln)
CACACAGGTAAAAAGGTGCAGTTGAAATATTCCTCA [GTGCAC_site9730] | 8.91 ± 0.52
AAAAAAAAAAAAAAATGTACATATATATATATATAT [XGTACX_site876] | 9.7 ± 0.2
ACATATACAAGACACACACACAACGTTTTAATAAAT [CACACA_site7017] | 9.79 ± 0.35
ATAATAATATTGTGTACACAATAATTTGTCAAATCA [CACACA_site6019] | 8.79 ± 0.43
AAAAAATAATAATAATGTACAAATAAAATAAAAACA [XGTACX_site6568] | 9.06 ± 0.54
AAGGAATATGTATATACACACAGGTACATATATATA [CACACA_site441] | 9.35 ± 0.39
ATAAAAATTGAAACATGTACACATATTCATTTTATA [XGTACX_site7968] | 8.59 ± 0.48
TCGTGTGAAAATATTACACACATTTACTATAGTATC [CACACA_site7590] | 9.07 ± 0.32
ATATATTTTTACCATACACACATATAATAAATATAT [CACACA_site3722] | 8.91 ± 0.46
TTATATTATACATACACACCCATATAACATGTTTTT [CACACA_site6539] | 9.04 ± 0.49
TCATTAATATTTCATAGTACAATTTTGTCTAATTGT [XGTACX_site6720] | 8.64 ± 0.51
TATTTTTTTCTTACTACACACATATATATGCTTTCC [CACACA_site4058] | 9.24 ± 0.55
AATGGAAAAAAAAAAATAAATACAAATAAATACAAA [GTGCAC_negctrl_site407] | 8.71 ± 0.6
TCTTATTAAAATATTTATATAGGTAATCACAATATT [GTGCAC_negctrl_site568] | 8.69 ± 0.45
AGAAATAAGAAATATACACACATATATATATATATA [CACACA_site2808] | 9.76 ± 0.085
CCCCCCGTGTTATATACACACATAATCAAATAAAAT [CACACA_site4111] | 11.1 ± 0.44
TATAAAATAAGACATGCATGTTATACATATATATAT [TGCATGCA_site314] | 9.13 ± 0.35
TTTTGTTATGAGAGGGTGCTAATATTTGGATATAAA | 8.54 ± 0.39
AAAAAAAGAAAAATTGCACACACTTATAAAAATATA [CACACA_site4014] | 8.97 ± 0.51
AAAAAAAAAAAAAGTAGTACATAATATGTTCCTCCT [XGTACX_site8356] | 8.71 ± 0.43
ATTATAAATTAAAATACACACATATATACCTAATAT [CACACA_site5541] | 8.93 ± 0.38
ATATATAATTACACAAATAAAAAAATAAAATGAAAT [CACACA_negctrl_site1513] | 8.8 ± 0.53
AGAATAAAAATACAAGCACACATGTATGAAATATAT [CACACA_site3213] | 9.46 ± 0.52

Sequence | gcPBM binding intensity (ln)
TGAACAATGTATAATTGTACGCAACGAAAATAAAAA [XGTACX_site1559] | 8.96 ± 0.38
ATCATGTTATATATGTGTACATATATATGATATAAT [XGTACX_site991] | 8.85 ± 0.33
ACAAAATATACAAAATGTACAAAATTTACAAAATAT [XGTACX_site6466] | 8.96 ± 0.52
AGCACAAGCACAAGCACACATTTATATATAAATACA [CACACA_site4642] | 9.1 ± 0.47
AAAAAAAAAAATAAAGAAATCAAAATTGATGAATAA [GTGCAC_negctrl_site692] | 8.49 ± 0.67
TATAAATATACACCCACACACATATATATATATATA [CACACA_site3745] | 9.94 ± 0.16
TGTGTAAACATATTCACACACATAAATTCGCATATA [CACACA_site6961] | 9.29 ± 0.38
TATATAAAAAATAAATGTACACATGTAATAATAAAA [XGTACX_site2640] | 8.98 ± 0.47
TAAATGATTGCATAATGTACATATAATTTTTTTTTT [XGTACX_site1988] | 8.53 ± 0.4
ATATGAACAAAATAAATCTCTTCAAAAATAATGTTC [GTGCAC_negctrl_site2] | 8.62 ± 0.43
TATATATATTTATGCTGTACCAAATAAGAATAGAAA [XGTACX_site7731] | 8.69 ± 0.35
ATTTTTGTACACTTCTTTTTTTTTTTTCTTTTATGT [CACACA_negctrl_site1323] | 9.2 ± 0.57
TACTTACATATAATAACACACAAGAAAAAAATAAAA [CACACA_site1033] | 8.94 ± 0.47
TACCCATGCATTTTTGCACACACATATATATATAAA [CACACA_site1429] | 9.39 ± 0.34
AGACAGCGCACAAACACACAAACACCCACCCACATA [CACACA_site451] | 10.1 ± 0.16
ATTTATTATGAACATACACACAAAAAAAAAAAGTAT [CACACA_site2054] | 9.2 ± 0.42
TAACTTTGAAAAGATGGTACACAATAATATATATAT [XGTACX_site8667] | 8.83 ± 0.35
ATTGTTATTTATTGTGTGCGCATTAATACATACATA [GTGCAC_site9982] | 9.43 ± 0.37
TAATGTTGAGAATTTTGTACATATAGATCAATTTAT [XGTACX_site5426] | 8.58 ± 0.31
AATCAATTAATATTAGCATAAAATTTTATTATTTTG [XGTACX_negctrl_site479] | 8.48 ± 0.5
TGACATAAAAAATATACACACTATAATATATATACT [CACACA_site4898] | 8.97 ± 0.44
ATAATATGTATGGTCACACAGACAAGGAAAGAATAA [CACACA_site5164] | 9.18 ± 0.55
TGTATCCATATTTGTTCACACACACCCATATTTATA [CACACA_site9190] | 9.46 ± 0.38

Sequence | gcPBM binding intensity (ln)
GTATATTTTAATATGACACACATATTATATATATAT [CACACA_site2483] | 9.01 ± 0.35
TAAAATAATACAAAATGTACAAAATTTACAAAATGT [XGTACX_site3541] | 8.83 ± 0.55
ATGTAAATTAAACATGGTACACATTATACAAAATTA [XGTACX_site5675] | 8.99 ± 0.52
AATATAGAACAATGTTGTACATATAATAATCTTATA [XGTACX_site4671] | 8.76 ± 0.49
AATATTAAAAACAAAACACACAAAAAAAAATAAACT [CACACA_site6470] | 9.17 ± 0.49
ATTAACACTGAAAAATGTACATATATAAATATAAGC [XGTACX_site8222] | 9.05 ± 0.47
AACGATATCTGTACTACACACATTATGTCATCCTAT [CACACA_site5374] | 9.46 ± 0.37
TCATTATTATTCCTCACACATATATATATATATATT [CACACA_site4375] | 9.18 ± 0.38
AGCACACCCACAAAAACACACACAAAGGTGTTCTTA [CACACA_site8355] | 9.39 ± 0.42
CACTTTTCATATATGACACACAAAAAATTAATAAAA [CACACA_site3639] | 8.7 ± 0.45
GCATGTATAATGGTAGTGCATATAATAATATAATAA [GTGCAC_site9548] | 8.96 ± 0.54
ATTTTGTTCGAAAGGTGTACATATACAAAAATTATG [XGTACX_site957] | 8.79 ± 0.47
TAATAATAAAAATAAACACACATATAGATGTATATA [CACACA_site7360] | 8.82 ± 0.38
ATTGCTTTTCTTTTTGCACACTTATGCATATATATA [CACACA_site2584] | 9.36 ± 0.33
ATATCGTATATGAGTGGTACTAATATGTAAAAAAAA [XGTACX_site7830] | 8.88 ± 0.53
TATTATCTCTTATGAACACACATTTTTATTTTCAAA [CACACA_site3353] | 8.67 ± 0.45
ATATAAGTATTTTGAATGCACTTTCTTTTTTTTTTT | 8.55 ± 0.47
ACTGAAAAAAGAAATACACACATTCTGGATCATATA [CACACA_site3860] | 9.05 ± 0.44
TTATAAAATAATTAATGTACGTTTATGTGTATCGAA [XGTACX_site6117] | 8.52 ± 0.51
AAAGTTATAATACGTACACACCTTATCTTTTTGGCT [CACACA_site6267] | 9.09 ± 0.49
ATATATATGAAAATATGTACATATATATATATATAA [XGTACX_site7550] | 9.28 ± 0.23
TTTATGGGTATGTTTACACACATAAAAAAATATATG [CACACA_site5646] | 8.94 ± 0.35
TTACATATTTATGATTGTACACATTTATAAACAATA [XGTACX_site2190] | 8.47 ± 0.4

Sequence | gcPBM binding intensity (ln)
TTAATATTGTTATAGCGTACAAATAAACATATTAAA [XGTACX_site8153] | 8.62 ± 0.38
TGATTCTAACTTATGGTGCAACATTATGGACACCGT | 8.67 ± 0.44
TATTTAAAAATAAAATGTACATATTATTATGCATTA [XGTACX_site1303] | 8.48 ± 0.41
ATTATACACGCGCGCACACACAACAAAAAAAAAAAA [CACACA_site7630] | 9.43 ± 0.48
ATAATAATAAAGTGAACACACACATATAATATATAT [CACACA_site9378] | 9.27 ± 0.42
TGGTAACAGCATAGAAAATGGACAAACGAAATATAA [GTGCAC_negctrl_site537] | 8.97 ± 0.61
TAAATAAACAAATTAACACACAGAATTTTTTTTTTC [CACACA_site1674] | 8.62 ± 0.46
AAAAGCTATAAAAATCGGTAATTTATAACAGGAATT [CACACA_negctrl_site469] | 8.74 ± 0.46
AATGTTAAGGAGGGGAGTACATAAAATTCTCTCTCC [XGTACX_site1990] | 8.69 ± 0.37
ATTATGTACTATTATACACACGTTTAATTGTAAATT [CACACA_site4278] | 8.97 ± 0.33
TTTCTAATTATTTCCCTTCAAATATATTAATATCGT [CACACA_negctrl_site429] | 8.61 ± 0.46
TAAAAATGTGGACACACACACATATATATATTTAAT [CACACA_site4941] | 9.43 ± 0.48
ATATATATTATTATATGTACATATAAATATATTAAT [XGTACX_site5270] | 8.61 ± 0.35
AAAAGGAAAATACTAGCACACAATATATAATAAACA [CACACA_site285] | 9.16 ± 0.37
TTAGTATATACATTTGCACACATTATTTTTTAACAT [CACACA_site2618] | 9.23 ± 0.33
ATATTGTAAGTAAAATGTAATAAATATAATAAAATA [CACACA_negctrl_site697] | 8.79 ± 0.42
TCCTTGCATTTTAAAACACACAAAAATTAATTGTTA [CACACA_site7152] | 8.53 ± 0.54
TACATACATAAACACACACACACATATATATATATA [CACACA_site8953] | 10.2 ± 0.23
ATTTTATAAACAAATGAACACACAAACATATATATA [CACACA_site9036] | 9.07 ± 0.42
ATTTGTGTATATTAGAGTACATAAAATTAGAGGAAC [XGTACX_site1654] | 8.87 ± 0.38
